Measurements taken from PubChem BioAssay AID686979 (National Center for Advancing Translational Sciences (NCATS), 2013).
Out of some 420,000 compounds screened, about 50,000 (12%) were called active. This list was built around the results that the source calls inconclusive (neither active nor inactive); the mix of calls is not that of the screen. Calls come from the whole dose curve; as a rule, active = well fitted inhibition curve with a large enough effect; inconclusive = small, poorly fitted or top-dose-only effect; inactive = flat fitted curve, though single readings scatter. No potency is given beside an inconclusive call; the fits are too rough.

Assay: qHTS for Inhibitors of human tyrosyl-DNA phosphodiesterase 1 (TDP1): qHTS in cells in presence of CPT; note: nearly all actives have a fitted effect of over 55% in size
Conditions: chicken DT40 Tdp1-/-;hTDP1 cells + 20 nM CPT, ATP luminescence, 48 h; series mostly up to 46.2 µM
How it was run: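 Cell growth measured by CellTiter-Glo luminescence after a minimum 48 h, 37 C compound exposure with 20 nM CPT in Tdp1-knockout DT40 cells stably expressing hTDP1, seeded 400/well; qHTS titration format.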
Potency is the fitted concentration of half-maximal effect; tags give direction and shape of the fitted curve.

Structure (SMILES)	Potency
CCOc1ccc(S(=O)(=O)NCC(c2ccc(N(C)C)cc2)N2CCCC2)cc1 (stereo not drawn)	inconclusive [inhibitor, single point]
Cc1ccc(-c2cn3c(n2)sc2cc(C(=O)NCCC4=CCCCC4)ccc23)c(C)c1	active: 16.4 µM
COc1ccccc1N1CCN(C2C(=O)c3ccccc3N2C(C)=O)CC1 (stereo not drawn)	inconclusive [inhibitor, single point]
O=S(=O)(c1ccc(-c2nnc(SCc3ccccc3)o2)cc1)N1CCCC1	inconclusive [inhibitor, single point]
Cn1cc(Br)c(C(=O)N2CCCCCC2)n1	inactive
COC(=O)c1ccc(C(=O)OC)c(NC(=O)COC(=O)CC2CC3CCC2C3)c1 (stereo not drawn)	inconclusive [inhibitor, single point]
CCOc1ccc2nc(NC(=O)COc3ccc(N(C)S(=O)(=O)c4ccc(C)cc4)cc3)sc2c1	inactive
CC1(C)Cc2ccccc2-c2nnc(SCc3ccc(C#N)cc3)n21	inconclusive [inhibitor, single point]
O=C(COc1ccc(F)cc1)Nc1ccc2nc(SCC(=O)N3CCCC3)sc2c1	active: 11.6 µM
O=C(NC1CCS(=O)(=O)C1)c1ccc(Br)s1 (stereo not drawn)	inactive
Cn1cnc2cc(NCc3ccccc3Cl)ccc21	inactive
Cc1cccc(C)c1NC(=O)c1cc(S(N)(=O)=O)c(Cl)cc1O	inactive
Cc1cc(=O)oc2c(C)c(OCC(=O)NC3CC(C)(C)NC(C)(C)C3)ccc12	inactive
COc1cccc(NC(=O)C2(C)CCN2Cc2ccccc2OC(F)F)c1 (stereo not drawn)	active: 20.6 µM
CCc1nc2ccccc2c(C(=O)OCC(=O)Nc2ccc(S(=O)(=O)N3CCOCC3)cc2)c1C	active: 14.1 µM
COc1ccc(NC(=O)CN(C)C(=O)c2cc3c(s2)CCC3)cc1	inactive
CCOc1ccc(-c2nnc(SCC(=O)Nc3ccccc3C(F)(F)F)o2)cc1	inconclusive [inhibitor, partial curve]
O=C(NC1CCCCC1)C(c1ccccc1)N1CCc2ccccc21 (stereo not drawn)	active: 25.9 µM
COCCCNC(=O)c1cn(CC(C)C)c(=O)c2c1c1ccccc1n2C	inconclusive [inhibitor, full curve, poor fit]
Cc1cccc(C(=O)NC(=S)Nc2ccc(S(=O)(=O)N(C)c3ccccc3)cc2)c1	inconclusive [inhibitor, single point]
CC(C)CCN(C(=O)Cc1ccc(Cl)c(Cl)c1)c1c(N)n(Cc2ccccc2)c(=O)[nH]c1=O	inconclusive [inhibitor, single point]
COc1cccc(NC(=O)CN(C)C(=O)[C@@H]2CCCN2C(=O)c2cccs2)c1	inactive
Cn1ccc2c(-c3ccc(F)nc3)cc3c(c21)C1CCC3O1 (stereo not drawn)	inconclusive [inhibitor, partial curve, poor fit]
Cc1nn2c3c(cnc2c1-c1ccccc1)C(=O)CC(c1ccco1)C3 (stereo not drawn)	inconclusive [inhibitor, single point]
Cc1oc2c(c1C(=O)N1CCOCC1)C(=O)c1ccccc1C2=O	active: 2.59 µM

Structure (SMILES)	Potency
CC(=O)c1ccc(N2CCN(C(=O)C3CCN(S(=O)(=O)c4ccc(Br)s4)CC3)CC2)cc1	inconclusive [inhibitor, single point]
CCNc1nc(NCC)n2c(SCC(=O)Nc3ccc(CC)cc3)nnc2n1	active: 20.6 µM
O=C(Nc1nc2c(s1)CCCC2)c1ccc2ncsc2c1	active: 16.4 µM
O=C(Nc1ccc(Cl)cc1Cl)[C@@H]1CC=C[C@@H]2CCN(C3CCCCC3)C(=O)[C@@H]21	active: 15.8 µM
O=C(c1c(Cl)nc2sccn12)N1CCCc2ccccc21	inconclusive [inhibitor, partial curve, poor fit]
O=C(CSc1nc2ccccc2c(=O)n1CCCN1CCOCC1)c1c[nH]c2ccccc12	inconclusive [inhibitor, single point]
COc1cc(OC)c(NS(=O)(=O)c2cc3c(cc2C)NC(=O)CO3)cc1Cl	inconclusive [inhibitor, single point]
Cn1ncc(C#N)c1/N=C/N1CCOCC1	inactive
CCOC(=O)C(C)n1cnc2c(nnn2-c2cccc(OC)c2)c1=O (stereo not drawn)	inactive
CC1(C)Cc2nc3sc4c(OCc5ccccc5)ncnc4c3cc2CO1	inconclusive [inhibitor, single point]
O=C(NCC(=O)N1CCN(c2ncc(C(F)(F)F)cc2Cl)CC1)c1ccc(Br)o1	active: 16.4 µM
CCCCSc1nnc([C@@H](NC(=O)OC(C)(C)C)C(C)C)o1	inconclusive [inhibitor, single point]
Cc1ccc(NC(=O)c2nc(S(C)(=O)=O)ncc2N(Cc2ccco2)Cc2ccccc2F)c(C)c1	active: 11.6 µM
CCN(C(=O)COC(=O)CCn1c(C)csc1=O)c1c(N)n(Cc2ccccc2)c(=O)[nH]c1=O	inactive
c1ccc(C(c2nnnn2Cc2ccco2)N2CCN(c3nc4ccccc4s3)CC2)cc1 (stereo not drawn)	inconclusive [inhibitor, single point]
Cc1cccc(C(C(=O)NC2CCCC2)N(C(=O)c2csnn2)C2CCCC2)c1 (stereo not drawn)	inconclusive [inhibitor, partial curve, poor fit]
Cc1[nH]c(C)c(S(=O)(=O)N2CCN(c3cccc(Cl)c3)CC2)c1C(=O)N1CCCCC1	active: 20.6 µM
Cc1cnc(CNc2ncncc2-c2ccc(N(C)C)cc2)cn1	inconclusive [inhibitor, single point]
Cc1cc(C)nc(SCC(=O)Nc2ncc(Cc3ccc(Cl)c(Cl)c3)s2)n1	inconclusive [inhibitor, single point]
Cc1ccc(C(=O)N(CC(C)C)c2nc3ccccc3s2)o1	inconclusive [inhibitor, single point]
COc1cc(C=C2C(=O)c3ccccc3C2=O)cc(OC)c1	inactive
NCCC(=O)N1c2ccccc2Sc2ccc(Cl)cc21	inconclusive [inhibitor, single point]
Cc1ccc(CNC(=O)c2nnn(-c3cccc(C)c3)c2N)cc1	inconclusive [inhibitor, partial curve]
CCN(C(=O)COC(=O)c1ccccc1Cc1ccccc1)c1c(N)n(Cc2ccccc2)c(=O)[nH]c1=O	inconclusive [inhibitor, single point]
O=C(CSc1nc(-c2ccccc2)c(-c2ccccc2)[nH]1)Nc1ccc2c(c1)OCO2	inconclusive [inhibitor, single point]

Structure (SMILES)	Potency
CCOC(=O)C1(CCOc2ccccc2)CCN(Cc2cc(OC)c3c(c2)OCO3)CC1	active: 20.6 µM
CCN(CC)S(=O)(=O)c1ccc(OC)c(NC(=O)c2cccs2)c1	inactive
CCCCNC(=O)NNc1nc(Cl)cc(C)c1C#N	inconclusive [inhibitor, single point]
O=C(NC1CC1)c1ccc(NC(=O)C2CCC2)cc1	inconclusive [inhibitor, single point]
CCN(CC(=O)Nc1ccccc1OC)C(=O)c1ccc(N(C)S(=O)(=O)c2ccc(C)cc2)cc1	active: 14.6 µM
S=C(NCCc1ccccc1)NCCc1ccccc1	inconclusive [inhibitor, single point]
O=C(CN(Cc1ccccc1)C(=O)CCl)c1cccc(Br)c1	active: 9.2 µM
COc1ccc(C(=O)Nc2sc(C)c(-c3ccccc3)c2C#N)cc1OC	inconclusive [inhibitor, single point]
Cc1ccc(NC(=O)CSc2ncnc3ccccc23)cc1S(=O)(=O)N1CCCCC1	active: 25.9 µM
FC(F)(F)c1nc2nc(Cl)c(Cl)nc2[nH]1	inconclusive [inhibitor, single point]
CNC(=S)N/N=C/c1cccc(OCc2ccccc2F)c1	inconclusive [inhibitor, single point]
CCOc1ccc2ccccc2c1CNc1nnnn1CC	inactive
Cc1ccc(C)c(NC(=O)Nc2nnc(N(CC(C)C)CC(C)C)s2)c1	inconclusive [inhibitor, single point]
CCCCCC(=O)Nc1ccc2ccccc2c1	inactive
Cc1cccc(C)c1-n1nnnc1C1(C)CCC(=O)N1Cc1ccc(F)cc1 (stereo not drawn)	inconclusive [inhibitor, single point]
Cn1c(SCC(=O)N2CCOCC2)nnc1-c1ccncc1	inconclusive [inhibitor, partial curve]
COc1ccc(CC(=O)N(Cc2ccccc2)c2cccc(C)c2)cc1OC	inconclusive [inhibitor, single point]
CCCOc1ccc(C2c3c(oc4ccccc4c3=O)C(=O)N2c2ccc(C)cn2)cc1OCC (stereo not drawn)	inactive
CCOC(=O)c1ccc(CN(Cc2ccc(F)cc2)S(=O)(=O)c2ccc(F)cc2)cc1	inactive
COc1cccc(CNC(=O)CCC2CCCN(C(=O)C3=CC(=O)CC(C)(C)O3)C2)c1 (stereo not drawn)	inactive
CCOC(=O)c1c(C)[nH]c(C)c1S(=O)(=O)N1CCC(C(=O)N2CCN(c3cccc(C)c3)C(C)C2)CC1 (stereo not drawn)	active: 23.1 µM
Cc1ccccc1S(=O)Cc1ccc(C(=O)NC2CCCCCC2)o1 (stereo not drawn)	active: 18.4 µM
CCOc1ncccc1C(=O)NNC(=O)c1csc(N2CCOCC2)n1	active: 25.9 µM
